Reference: the supplement of paper PMC10126150
Values marked as one replicate rest on one cluster of the flow cell; about a third of the high ones do not repeat.

Tested on: ATP
Assay: switch fluorescence ratio, 500 uM ATP over buffer (Cy3 cluster intensity, sum of 5 cycles each) (fold (ratio)); higher = stronger signal-on switching upon ATP binding; sequences stand for … in TCGTCGGCAGCGTCAGATGTGTATAAGAGACAGTTTTTTTTTTTTTTTTTTTTTTTTT…TC
Conditions: aptamer strand: ATP DNA aptamer (quencher-CACCTGGGGGAGTATTGCGGAGGAAGG + anchor), 100 nM annealed; ATP concentration: 500 uM; one replicate
Method in brief: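 For every switch-domain sequence, the fluorescence ratio is the mean of per-cluster values, each being summed target-cycle Cy3 intensity over summed buffer-cycle Cy3 intensity. Clusters outside 100-1000 RFU were excluded. On a modified Illumina MiSeq flow-cell, the Cy3-labelled switching-strand clusters were annealed to 100 nM quencher-labelled ATP aptamer, imaged in selection buffer and then after 15 min with 500 uM ATP at 22 °C. Five such cycles were run, with NaOH stripping and re-annealing between them.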
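Also: ATP exposure 15 min at 22 °C before imaging.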

Sequence | switch fluorescence ratio
ACTCATCCTG | 1.16
GTGTTTATGT | 0.998
TTCTTGGTGG | 1.03
GTCCCTGGTC | 1.05
GACTATTACT | 1.05
GTTTTAGACC | 1.03
GCGGGTTGCA | 1.04
CGGTTGATG | 0.961
CCCGTTATGG | 1.05
AAACGCGCTG | 1.02
GCACTGATAT | 1.06
AAGGAGTCGT | 1.02
GCGTTCCTAT | 0.99
GCCTATTTAT | 0.999
GTTGAGTTTA | 1.01
GGGGGGCACG | 1.04
ACGACATGC | 1.37
CAGTTAATAT | 0.995
AGCGCATGGT | 1
AAGGCATAGA | 0.957
TGGTCGGTTC | 0.982
CAAGAGTTGT | 0.96
CGCCTCGGAC | 1.32
CGGTGAAAGT | 0.984
CCCAAGCCAG | 1

Sequence | switch fluorescence ratio
ATTTGCTGTA | 0.992
TGGGTCCTCC | 1.01
ATTCACCATA | 1.07
AAGCGCGTTA | 0.995
ACAGTCACGG | 1.26
AGCTTTTCGA | 0.996
GCCTCTTGAA | 1.02
TTACGCTAGT | 1.03
GTCATAAATA | 0.999
CAAGAGGGA | 0.982
AAGCGGGGG | 1.07
CGAATTCCGT | 0.998
AAGAACTTTT | 0.945
CTTTAAATAG | 1.07
TGCTTAGATG | 0.938
CAGGCTGCCA | 1.01
AAGGAGATCG | 1.07
AGTAGTGAAG | 1.02
TACTAGAAGT | 1.03
AAAACTGCCG | 0.968
ATCAAAATGA | 1
ATGTAGAATG | 1
CGGGAAATAA | 1.06
GTTCCAGATA | 1.02
TAGTCTGCCT | 1.04

Sequence | switch fluorescence ratio
CCATCAACGT | 1.01
CAAGTTAGGT | 0.971
TCGCTATATC | 4.91
CTTGCTACTA | 1.06
GCTACTCAAC | 2.08
CTGCTTAACA | 1.03
GACGATGTTG | 1.02
AAGCTAAGGG | 0.992
ACCAGTGACC | 1.04
CAACATTAGA | 1.02
AATAATGGCG | 0.915
AAGTACCTTT | 1.2
ACTATAGTAG | 1
TGTAGGGCCA | 0.978
TGATGCGTCC | 1.03
TAGTTTAAAA | 1
TTTCACATTA | 0.948
ATGTGTAAAT | 1.03
ACGTAGTTTA | 1.01
TGTGCTAAAT | 0.972
CACAGTGTCG | 1
CAGGTTTATT | 0.968
TAGTATCGGT | 0.958
TGCATGCGGT | 0.988
CCGAGAGAAG | 1.21

Sequence | switch fluorescence ratio
CGTCATGACT | 0.987
AAACTATGTT | 1.05
CTGCGTTAAT | 1.06
GCTACGTTAC | 2.75
AAGGTTCCCC | 0.983
TTGAACCCTG | 1
GTGGATAGGG | 1.03
GTGTGATAG | 0.985
CCCATGGGGA | 1.06
CATTGGAAAG | 0.997
ACGACAAACG | 1.11
TCAAGAAGTC | 0.951
TTGGGTGTGT | 1.05
GAAAAATAGG | 0.998
CAAGAGGAAC | 0.995
TATAATGGGA | 1.02
ACCCTCATTA | 1.06
TGGACCGTTT | 1.01
AAACTCCACT | 1.15
AGCCTCTATG | 1.05
CTGGATTCGA | 1.01
TTAAATAAC | 0.966
CTTATATGCG | 0.998
CAGAGAAAAG | 0.973
CGAAAACGCG | 1.03

Sequence | switch fluorescence ratio
GGCGGTGGTT | 1.04
GCTTGATATC | 1.01
AGTATCGGGT | 1.01
AGTAGGGTTC | 0.956
AACAGGGAGA | 1.03
CTGCCCGAAC | 1.26
ATTGGCGCGC | 0.98
CCTGGCTTGG | 0.998
GAGCTGAGTG | 1.01
ACGGTAATCT | 1.16
AGTTAGCAGT | 1.04
TAACTTCCAT | 1.02
TTATCAATCT | 1.03
GCTCACAAAT | 1
CCTGAGCACC | 1.69
GGGGCACAAT | 1.14
CATAAAGGG | 1.01
GGTGCGCGTG | 0.998
TCCCACGCGC | 3.88
TACCCTTAGT | 1.02
CCTAGCCATT | 1.18
TGCGATACGC | 1.25
CCCGAGTCAT | 1.06
TAAAAGTAAG | 0.984
AGATGGTTTT | 0.984

Sequence | switch fluorescence ratio
TAGATTTGGT | 1.05
GGGTCCGAGC | 1.07
ATGAGATTTG | 1.04
ACTGACTATA | 1.14
CATCGATGTG | 1.02
GTCGGGGAGT | 0.97
TTGATGTAAT | 0.978
ACACATGCCT | 1.05
AAACAATAAA | 0.97
GACATACAAA | 1.26
CAGGAGAATT | 0.995
AGAGTTCCAA | 1
TTTGTTCAAA | 1.03
TTCTCTGATA | 1.02
GCTAGTGTAG | 1.01
TACGTAAAAA | 1.05
CGGGGTGCA | 1.01
TATATTAAAA | 1
AATGTAACTC | 1.02
GACTTAATGA | 1.01
ATGTGCATA | 1.03
GGAACGCGAC | 1.55
CATGGTAATC | 1
ACTGTTCGTA | 0.974
GGAGCTGCCC | 1.12

Sequence | switch fluorescence ratio
TTACGCACCG | 1.52
TTTGTGACTG | 1.05
GTTAGGGGAC | 0.978
ATTATATTTC | 1.06
TTCAAACGCT | 1.06
CGATCGTACG | 0.999
GCATTACGGA | 1.67
AAGCCCGAGT | 0.983
TACTGATACC | 1.22
ACATAACGTG | 1.14
CGTTGTGCGT | 1
TGCAGTTTTG | 0.981
ACATGAAGCG | 0.974
CTCCTATAG | 1.53
GTGAAGTCGG | 1
ATCGTTTGGG | 0.947
AAAATGACGG | 1.01
GACAAATCG | 0.978
AATTCTTTTT | 0.98
CGGACTTGGA | 1.05
ATGCCGCGCA | 0.995
TTGCGAGTCG | 1.01
ACGGATGGTT | 0.972
GTGGTCCCGA | 1.06
TGAGCTATAG | 1.39

Sequence | switch fluorescence ratio
CTTAGCGATC | 1.45
TTAGAGTTAA | 0.972
CGTGATGCGT | 0.99
TGCATCATCT | 1.02
CTACGCGGCT | 1.32
TCGGCTCAGG | 1.06
ATGGTTGGCA | 0.998
CCCGTTGAAA | 1
CACGGTATGG | 1.11
CCGGCGTCCG | 1.09
GCCCATAGTA | 1.02
CACGTTGGGG | 1.01
CAAAGCCGC | 1.11
GGCGTGAGAC | 1.11
TAATGGCTGT | 0.999
ACTGAGTTCT | 1.05
CGTAGACATG | 1
AGAGTAGGAA | 0.993
GTCCAAAGA | 1.02
ATTGTCCCGC | 1.06
AATTATGACT | 1.54
GGAATATTAT | 0.969
CCAGAGTACT | 1.07
CAAATGGCG | 1.01
AGTTACTTGT | 0.978
